The values that follow come from publication PMC4336329 (PLoS ONE, 2015).

Structures are written as SMILES. The campaign covered roughly 310,000 compounds. About 2,200 (0.71%) showed an effect of 50% or more. The effect is printed as a negative number. The list shows a part of the results.

This test deals with human ether-à-go-go-related gene (hERG) potassium channel (human, UniProt Q12809). Description: primary screen, population patch clamp on CHO cells stably expressing hERG.
human ether-à-go-go-related gene (hERG) potassium channel, sequence (Q12809 whole entry, looked up): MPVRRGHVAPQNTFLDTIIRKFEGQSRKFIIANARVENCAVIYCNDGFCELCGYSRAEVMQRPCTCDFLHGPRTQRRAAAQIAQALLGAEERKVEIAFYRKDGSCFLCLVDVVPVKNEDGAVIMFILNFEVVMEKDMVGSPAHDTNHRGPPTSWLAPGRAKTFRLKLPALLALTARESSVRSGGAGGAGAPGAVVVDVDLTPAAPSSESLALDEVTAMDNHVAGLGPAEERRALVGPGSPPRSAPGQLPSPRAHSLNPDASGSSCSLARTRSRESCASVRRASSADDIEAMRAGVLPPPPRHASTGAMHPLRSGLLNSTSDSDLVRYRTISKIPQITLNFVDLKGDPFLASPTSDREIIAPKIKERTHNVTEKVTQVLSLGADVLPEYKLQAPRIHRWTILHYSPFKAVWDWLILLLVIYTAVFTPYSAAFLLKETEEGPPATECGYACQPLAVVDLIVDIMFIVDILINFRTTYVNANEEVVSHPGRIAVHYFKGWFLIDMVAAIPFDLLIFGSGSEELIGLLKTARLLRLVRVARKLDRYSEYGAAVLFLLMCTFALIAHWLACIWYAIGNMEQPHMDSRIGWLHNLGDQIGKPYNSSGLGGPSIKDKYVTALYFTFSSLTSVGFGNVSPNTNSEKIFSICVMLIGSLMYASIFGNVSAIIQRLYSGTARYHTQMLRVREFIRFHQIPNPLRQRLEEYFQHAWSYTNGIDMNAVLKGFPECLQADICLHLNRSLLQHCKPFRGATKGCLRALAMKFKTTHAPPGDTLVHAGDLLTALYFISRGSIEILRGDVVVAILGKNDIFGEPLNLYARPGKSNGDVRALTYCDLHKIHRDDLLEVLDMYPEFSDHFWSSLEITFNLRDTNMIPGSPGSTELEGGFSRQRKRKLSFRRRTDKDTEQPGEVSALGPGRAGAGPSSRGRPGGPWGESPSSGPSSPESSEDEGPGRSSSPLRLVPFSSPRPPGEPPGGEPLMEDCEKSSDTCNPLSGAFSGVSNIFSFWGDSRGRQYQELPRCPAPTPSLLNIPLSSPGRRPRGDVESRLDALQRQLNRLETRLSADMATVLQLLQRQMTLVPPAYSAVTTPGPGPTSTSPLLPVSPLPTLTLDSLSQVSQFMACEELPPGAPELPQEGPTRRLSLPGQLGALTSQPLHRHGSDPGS
For `O=C(CN1CCOCC1)Nc1ccccc1NC(=O)C1CCN(c2ncccn2)CC1`, the “hERG current change (%, negative = inhibition) at 1uM” value stood at 11.6%. The value for `O=C(NCc1ccco1)C1CCCN(S(=O)(=O)c2cccc3nsnc23)C1` (stereo not shown) was 7.92%.

For `Cn1c(Nc2ccc(F)cc2)nc2ccccc21`, the “hERG current change (%, negative = inhibition) at 1uM” value is on record as -77.5%. The value for `CCC(C)[C@H](NC(=O)N1CCn2c1nc1ccccc12)C(=O)NCc1ccccc1` (stereo partly shown) was 11.9%; that for `CCCN1C(=O)/C(=C/c2nc3ccccc3c(=O)[nH]2)c2cc(C)ccc21` was 12%; that for `Nc1ccccc1C(=O)N1CCC(O)(c2ccc(Cl)cc2)CC1` was 13.3%. The same measure for `Cc1nn(C)c(-c2n[nH]c(=S)n2Cc2ccco2)c1Cl`: 12%; for `CS(=O)(=O)N1CCN(c2ccccc2NC(=O)CSc2nnc(-c3ccco3)o2)CC1`: 6.15%. The value for `CCCCS(=O)(=O)Nc1ccc2ncn(C)c(=O)c2c1` was 5.12%. As for `COc1ccccc1CCNC(=O)C(=O)NCC1OCCN1S(=O)(=O)c1ccc(OC)c(OC)c1` (stereo not shown), the “hERG current change (%, negative = inhibition) at 1uM” value is recorded as -0.0962%.

Consider `O=C(NCC(=O)N1CCCCCC1)c1ccc(Br)cc1`, for which the “hERG current change (%, negative = inhibition) at 1uM” value is on record as 11.2%.

As to `O=C1C2C3CCC(C3)C2C(=O)N1CNc1ccc(F)cc1` (stereo not shown), the “hERG current change (%, negative = inhibition) at 1uM” value came out at 9.38%. The value for `Cc1ccc(-c2csc(Nc3ccccn3)n2)cc1` was -0.636%. For `CC(Sc1nnc(Cc2ccccc2)n1C)C(=O)NC1CC1` (stereo not shown), the “hERG current change (%, negative = inhibition) at 1uM” value is 11%. Turning to `COc1ccc(-c2nc(CN3CCC(C(=O)NC4CCN(Cc5ccccc5)CC4)CC3)c(C)o2)cc1OC`, the “hERG current change (%, negative = inhibition) at 1uM” value is 8.13%.

For the molecule `COc1ccc(C(=O)Nc2ccc(C(=O)N3CCCC3)cc2)cc1[N+](=O)[O-]`, the “hERG current change (%, negative = inhibition) at 1uM” value was -4.85%. The value for `c1ccc2oc(N3CCNCC3)nc2c1` was 7.21%; that for `CSc1ccc(Cn2nnc(C(=O)NCCc3ccc(Cl)cc3)c2N)cc1` was 10.9%. The value for `CCn1c(SCC(=O)N2CCN(c3ccccc3)CC2)nc2c([nH]c3ccccc32)c1=O` was 6.48%.

For `Nc1nc(Nc2ccc(Cl)cc2)n[nH]1`, the “hERG current change (%, negative = inhibition) at 1uM” value came to 1.23%. The value for `Cc1ccccc1C(=O)NC(NCc1ccco1)C(Cl)(Cl)Cl` (stereo not shown) was 11.3%; that for `COc1cc(C(=O)N2C[C@H]3C[C@@H](C2)c2cccc(=O)n2C3)cc(OC)c1OC` was 13.4%; that for `O=C(Cn1ncc2c([nH]c3ccccc32)c1=O)N1CCOCC1` was 10.6%. The same measure for `CCc1c(C(C)S(=O)(=O)c2ccc(C)cc2)[nH]c(=O)n1-c1ccc(OC(F)(F)F)cc1` (stereo not shown): 14.5%; for `CCc1nnc(NC(=O)CCC(=O)N2CCN(c3cc(C)ccc3C)CC2)s1`: 13.2%. The value for `C=CCNc1nc(Nc2cc(Cl)ccc2OC)nc(OC)n1` was 16.4%. On to `COc1cccc(-c2cc(C(=O)Nc3c(C)nn(Cc4ccccc4C)c3C)no2)c1`, for which the “hERG current change (%, negative = inhibition) at 1uM” value is on record as -6.56%. The same measure for `CCCc1cc(=O)oc2cc(OCC(=O)NCCc3c[nH]c4ccc(OC)cc34)ccc12`: -0.609%; for `O=C(COC(=O)/C=C/c1cccs1)NC(c1ccccc1)c1ccccc1`: 7.52%. The same measure for `O=C(OC(C(=O)NCc1ccc2c(c1)OCO2)c1ccccc1F)c1ccco1` (stereo not shown): 5.69%; for `Cc1cccc([C@@H]2[C@@H]3C(=O)N(Cc4ccccc4)C(=O)[C@@H]3[C@]3(Cc4ccccc4)C(=O)N(c4cccc(Cl)c4)C(=O)N23)c1`: 12%; for `O=C(CCNS(=O)(=O)c1ccc2c(c1)CCC(=O)N2)Nc1ccc(F)c(F)c1`: 7.73%. The value for `COC(=O)CSc1ncnc2c1sc1nc(-c3ccco3)c3c(c12)CC(C)(C)OC3` was 6.3%. As for `CCOC(=O)CCCNC(=O)CCCNC(=O)C(c1ccccc1)c1ccccc1`, the “hERG current change (%, negative = inhibition) at 1uM” value is recorded as -0.415%. For the molecule `Cc1ccc(C(C)(C)C)c(OCCCn2ccnc2)c1.O=C(O)C(=O)O`, the “hERG current change (%, negative = inhibition) at 1uM” value amounted to 2.89%. As for `Cn1nc(C(=O)NC2CCCCCC2)ccc1=O`, the “hERG current change (%, negative = inhibition) at 1uM” value amounted to 4.44%. The same measure for `Cc1ccc(S(=O)(=O)CC(=O)Nc2nnc(C(C)C)s2)cc1`: 10%; for `CCOC(=O)C1CCN(C(=O)c2ccccc2NC(=O)c2ccc(Cl)cc2)CC1`: 2.06%. As to `CC(C)n1nnnc1SCC(=O)N1N=C(c2cccs2)CC1c1cccs1` (stereo not shown), the “hERG current change (%, negative = inhibition) at 1uM” value stood at 2.55%. The same measure for `COc1ccc([C@@H]2CC(=O)c3c(O)cc(O[C@@H]4OC(CO[C@@H]5OC(C)[C@H](O)[C@H](O)C5O)[C@@H](O)[C@@H](O)C4O)cc3O2)cc1O` (stereo partly shown): 7.7%; for `Cc1c(NC(=O)Nc2cccc(C(F)(F)F)c2)c(=O)n(-c2ccccc2)n1C`: 3.57%; for `C=CCOc1ccc(Cl)cc1CNCCCN1CCOCC1.Cl`: 4.68%. Turning to `CN(C)CC1CSCCC1(O)c1cccc(Cl)c1.Cl` (stereo not shown), the “hERG current change (%, negative = inhibition) at 1uM” value was 10.4%. As for `Cc1[nH]c2ccccc2c1/C=N/NS(=O)(=O)c1ccccc1`, the “hERG current change (%, negative = inhibition) at 1uM” value is reported as 14.4%. Turning to `C/C(=N/NC(=O)c1ccccn1)c1ccncc1`, the “hERG current change (%, negative = inhibition) at 1uM” value is 12.8%. The value for `COc1cc(OC)c(OC)cc1CN(C)CC1CCCN(CCc2ccccc2F)C1` (stereo not shown) was -11.3%; that for `Cc1cccc(N2CCN(Cc3nc(-c4ccc(F)cc4F)oc3C)CC2)n1` was -7.87%; that for `N#Cc1c(C(F)(F)F)cc(-c2cccs2)nc1N1CCCCC1` was 16.7%.

Regarding `CC(=O)CCc1ccc(OCCCCN2CCC(Cc3ccccc3)CC2)cc1.O=C(O)C(=O)O`, the “hERG current change (%, negative = inhibition) at 1uM” value is given as -68.3%. The value for `COc1ccccc1-n1c(-c2ccccc2Cl)nc2ccccc2c1=O` was 6.57%; that for `CC(=O)Nc1nc2n(n1)C(c1ccc(Cl)cc1)C=C(C)N2` (stereo not shown) was 9.35%; that for `Cc1ccc(S(=O)(=O)NC2CC2)cc1` was 12.7%.

Consider `CC1CCCC(C)N1CC(O)COCc1ccccc1.Cl` (stereo not shown), for which the “hERG current change (%, negative = inhibition) at 1uM” value came out at 10%. The same measure for `CCCN1C(=O)/C(=C/c2ccc(N3CCCC3)c(C)c2)NC1=S`: 1.62%; for `COc1ccc(NC(=O)c2cc([N+](=O)[O-])ccc2O)cc1`: -14.5%.
